Survival data for 58 compounds are collected here from PubChem BioAssay AID463173 (ICCB-Longwood Screening Facility, Harvard Medical School, 2010).

About 4,300 (8.3%) of roughly 52,000 compounds were called active. Rule as the data show it: active = survival mostly below about 52% (no sharp cut-off); inactive = mostly above about 56%. The list shows a part of the results.

In this test the test system is DeltatarO mutant. Description: S. aureus survival, RN4220 and DeltatarO strains – OD600, teichoic acid synthesis inhibitors, primary screen (AID 463173). The following applies: S. aureus RN4220 wild type/DeltatarO growth, OD600, 18 h, hits give low values, screened at 18.75 µg/mL (by protocol).
Take `N#Cc1c(C(F)(F)F)cc(-c2cccs2)nc1SCC(=O)Nc1cccc(Br)c1`: the survival is inactive: 65%.

Consider `Cc1ccc(C(=O)N2CCN(c3ccccc3)CC2)cc1NC(=O)c1nsc2ccccc12`, for which the survival was inactive: 102%.

For the compound `O=C(NCCCN1CCN(c2ccccc2F)CC1)c1ccc2nc(Cc3ccccc3)oc2c1`, the survival is active: 46%.

As for `Cc1ccc(N2C(=O)SC(N(C)c3ccccc3)C2=O)cc1` (stereo not drawn), the survival is inactive: 90%.

Regarding `O=C(NCc1ccc(Cl)cc1)C1CCN(C(=O)c2cnn(-c3ccccc3)c2-n2cccc2)CC1`, the survival was inactive: 65%.

Turning to `Cc1ccc(C(=O)Nc2c(C)nc3ccccn3c2=O)cc1`, the survival was inactive: 74%.

In the case of `Cc1ccc(C)c(N2CCN(C(=O)CCc3c(C)nn(-c4ccc(N5CCCC5)nn4)c3C)CC2)c1`, the survival was inactive: 78%.

For the compound `CCn1c(SCc2ccccc2)nnc1C1CCCCC1`, the survival is inactive: 80%.

For `O=C(CCCCCn1c(=O)[nH]c2ccsc2c1=O)NCc1ccccc1`, the survival is inactive: 89%.

For the compound `Oc1c(C(c2cccc(Br)c2)N2CCCC2)sc2nc(-c3ccco3)nn12` (stereo not drawn), the survival is inactive: 83%.

In the case of `CCOc1ccc(CNC(=O)Cn2nc(N3CCN(c4ccccc4)CC3)ccc2=O)cc1`, the survival is inactive: 72%.

`CCCS(=O)(=O)c1c(S(=O)(=O)CCC)c2cc(C(C)(C)C)ccn2c1C(=O)c1ccc(C)cc1`: the survival is inactive: 64%.

As for `O=C(/C=C/c1ccco1)OCCN1CCOCC1`, the survival is inactive: 69%.

Turning to `COc1cccc(CN2C(=O)c3ccccc3C2C(=O)NCCc2ccccc2)c1` (stereo not drawn), the survival is inactive: 101%.

Consider `CCC(C)NC(=O)c1ccc(Cn2c(=O)c3cccn3c3cccnc32)cc1` (stereo not drawn), for which the survival is inactive: 116%.

`COc1ccc(Nc2nnc(-c3cc4cc(Cl)ccc4oc3=O)s2)cc1`: the survival was inactive: 81%.

`COc1cc(SC)ccc1C(=O)N1CCn2c3c(c4cc(C)ccc42)CCCC31` (stereo not drawn): the survival was inactive: 70%.

In the case of `COc1ccc(-c2nn(-c3ccc(F)cc3)c3c2cnc2cc4c(cc23)OCO4)cc1`, the survival was inactive: 79%.

Take `CCc1ccccc1NC(=O)CSc1nc2n[nH]c(C)c2c(=N)n1-c1cccc(C)c1`: the survival was inactive: 94%.

As to `COc1ccccc1CNc1ccc(-c2nc(-c3ccccc3C)no2)cc1[N+](=O)[O-]`, the survival was inactive: 91%.

Consider `CCOc1nc(NC(=O)NS(=O)(=O)Oc2cccc(Cl)c2)nc(-c2ccccc2)n1`, for which the survival was inactive: 63%.

As for `CC1CCn2c(nc3cc(C(=O)NCc4ccc(F)cc4)ccc32)C1` (stereo not drawn), the survival was inactive: 87%.

For `Cc1cc(C)cc(NC(=O)C2CCN(C(=O)c3cnn(-c4ccccc4)c3-n3cccc3)CC2)c1`, the survival was inactive: 70%.

Turning to `Cc1ccc2c(c1)cc1c(=O)n(CC(=O)NC(C)CCc3ccccc3)nc(C)n12` (stereo not drawn), the survival was inactive: 105%.

Take `CC1CCN(c2ccc(-c3cccc(NS(=O)(=O)c4cccs4)c3)nn2)CC1`: the survival was inactive: 89%.

In the case of `O=C(NCc1cccs1)c1ccc(CSc2nc3cccnc3n2Cc2ccc(F)cc2)cc1`, the survival is inactive: 70%.

Regarding `Cc1ccc(CNC(=O)CSc2nc(=O)n(Cc3ccco3)c3c2CCC3)cc1`, the survival was inactive: 78%.

Regarding `COc1ccc(-c2c(C#N)c(SCC(=O)Nc3ccc(C)cc3)nc(C)c2C(=O)Nc2ccccc2)cc1`, the survival was inactive: 83%.

Turning to `O=C(O)CCSc1nnnn1-c1ccccc1`, the survival is inactive: 73%.

With `COc1cccc(CNC(=O)CN2CCCN(Cc3ccccc3)S2(=O)=O)c1`, the survival is inactive: 77%.

Take `Cc1ccn2c(Nc3ccc4c(c3)OCO4)c(-c3ccc(Cl)cc3)nc2c1`: the survival was inactive: 96%.

On to `O=C(Nc1ccc(F)c(F)c1)c1cc(S(=O)(=O)NCc2ccc3c(c2)OCO3)ccc1F`, for which the survival was inactive: 77%.

Turning to `CCOC(=O)c1nn2c(C(F)(F)F)cc(-c3ccc(C)cc3)nc2c1Cl`, the survival is inactive: 76%.

Regarding `CN1C(=S)NC(C)(C)CC1(C)O` (stereo not drawn), the survival was inactive: 92%.

Turning to `CCCCC(=O)Nc1nnc(SCc2cc(=O)n3cc(C)ccc3n2)s1`, the survival is inactive: 79%.

As for `Cc1nn(C)c(C)c1CCNC(=O)Nc1cccc(Cl)c1C`, the survival was inactive: 67%.

As for `COc1ccc(Cn2cc(C(=O)c3ccc(F)cc3)c(=O)c3cc4c(cc32)OCCO4)cc1`, the survival was inactive: 66%.

In the case of `CC(=O)Nc1nonc1-c1nnc(SCC(=O)Nc2cccc(C)c2C)n1-c1ccccc1`, the survival is inactive: 61%.

As for `COc1ccc(-c2nc3ccccc3o2)cc1NC(=O)c1ccc(-c2ccc(Br)cc2)o1`, the survival was active: 43%.

With `CC1CCN(C(=O)Cn2cc(SCC(=O)Nc3ccccc3C(F)(F)F)c3ccccc32)CC1`, the survival was inactive: 93%.

For `COc1ccc(-c2nc(CCNC(=O)c3c(F)cccc3Cl)cs2)cc1`, the survival was inactive: 128%.

In the case of `CCCCc1nn2c(=O)cc(COC(=O)c3ccco3)nc2s1`, the survival was inactive: 77%.

On to `CCCCNc1ccc(-c2nc(-c3ccncc3)no2)cc1[N+](=O)[O-]`, for which the survival is inactive: 59%.

Regarding `COc1ccc(-c2csc(NCCCN(C)C)n2)cc1`, the survival is inactive: 91%.

For the compound `COc1cccc(NC(=O)Cn2c(=O)ccc3cc(S(=O)(=O)N4CCC(C)CC4)ccc32)c1`, the survival was inactive: 69%.

With `CCSc1nc2c([nH]c3ccccc32)c(=O)n1-c1cccc(OC)c1`, the survival was inactive: 94%.

Regarding `OCCCc1n[nH]c(=S)n1-c1ccccc1`, the survival was inactive: 93%.

Consider `CCOc1ccc(-c2nnc(SCC(=O)NC(C)CC)nc2-c2ccc(OCC)c(OC)c2)cc1OC` (stereo not drawn), for which the survival is inactive: 67%.

For the compound `Cc1cccc(-c2cc3nc(C)cc(NCCCn4ccnc4)n3n2)c1`, the survival was inactive: 88%.

For the compound `O=C1NC2(CCCCC2)C(=O)N1c1ccc(Cl)cc1`, the survival is inactive: 109%.

Take `Cn1nc(-c2ccc(OCC(=O)Nc3ccc(Cl)cc3)cc2)c2ccccc2c1=O`: the survival was inactive: 74%.

Regarding `CCN(C(=O)c1cc2c(=O)n(CC)c3ccccc3c2s1)c1cccc(C(F)(F)F)c1`, the survival is inactive: 72%.

Take `COc1ccc(Br)cc1CNC(=O)c1cnc2sc(N3CCCCCC3)nn2c1=O`: the survival is inactive: 99%.

For the compound `Cc1cccc(NC(=O)C2CCCN(S(=O)(=O)c3c(C)n[nH]c3C)C2)c1` (stereo not drawn), the survival is inactive: 135%.

On to `CCC(C(=O)Nc1ccccc1)n1nc(-c2cc(C)ccc2C)ccc1=O` (stereo not drawn), for which the survival is active: 37%.

Take `CCN(CC)C(=O)CSc1nc(C)cc(C)n1`: the survival is inactive: 69%.

In the case of `Cc1ccc(CN2C(=O)C(=O)c3cc(Br)cc(C)c32)cc1`, the survival is active: 31%.

`CCN1C(=O)N(c2ccc(C(C)=O)cc2)S(=O)(=O)c2ccccc21`: the survival was inactive: 83%.
